# Test results reported in PubChem BioAssay AID1671188 (National Center for Advancing Translational Sciences (NCATS), 2021).
# About 250 (0.25%) of roughly 100,000 compounds were called active. The inconclusive results got no clear call from the source; some entries with a clear call stand among them for comparison. Calls come from the whole dose curve; as a rule, active = well fitted inhibition curve with a large enough effect; inconclusive = small, poorly fitted or top-dose-only effect; inactive = flat fitted curve, though single readings scatter. Potencies of inconclusive entries are left out as doubtful fits.
# Molecular target: Alanine aminotransferase 2 (Homo sapiens) (UniProt Q8TD30)
# UniProt Q8TD30, sequence (Q8TD30 whole entry, looked up): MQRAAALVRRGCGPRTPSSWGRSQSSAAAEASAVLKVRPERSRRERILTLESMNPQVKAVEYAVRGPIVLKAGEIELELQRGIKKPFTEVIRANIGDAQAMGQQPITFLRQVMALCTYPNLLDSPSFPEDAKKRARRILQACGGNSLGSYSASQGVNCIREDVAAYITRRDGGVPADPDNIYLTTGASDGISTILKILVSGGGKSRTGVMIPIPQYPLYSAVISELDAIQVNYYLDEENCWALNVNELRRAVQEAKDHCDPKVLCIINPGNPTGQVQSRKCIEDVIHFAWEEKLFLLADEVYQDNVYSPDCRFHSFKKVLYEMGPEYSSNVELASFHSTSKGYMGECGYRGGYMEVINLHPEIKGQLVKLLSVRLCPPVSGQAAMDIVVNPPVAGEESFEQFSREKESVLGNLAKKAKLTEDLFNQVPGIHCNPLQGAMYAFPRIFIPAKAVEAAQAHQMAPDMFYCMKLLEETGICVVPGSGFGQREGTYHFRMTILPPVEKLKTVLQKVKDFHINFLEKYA
# Assay: Primary qHTS assay for inhibitors of Glutamate pyruvate transaminase 2 (GPT2); note: nearly all actives have a fitted effect of over 60% in size
# Conditions: Recombinant GPT2, coupled pyruvate oxidase/HRP Amplex Red fluorescence; activity change, negative = inhibition: at 57.7 µM (top of the series) unless noted; series mostly up to 57.7 µM
# Summary of the method: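 Recombinant GPT2 (10ng/uL) with 250uM a-KG and 2mM L-alanine, 30 min at room temperature, in HEPES pH 7.5 buffer. Pyruvate detected by pyruvate oxidase/HRP/Amplex Red fluorescence after 30 min in the dark; AOA (50uM) as positive control.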
# % is set by controls: 0 for no effect and ±100 for the full control effect; potency is the fitted concentration of half-maximal effect; tags give direction and shape of the fitted curve.
Compound,"activity change, negative = inhibition",outcome,Potency
O=C(c1cccc2[nH]ccc12)N1CCC(n2cc(-c3nc(-c4ccccc4)no3)nn2)CC1,inactive: 0.378%,–,–
COc1ccc(-c2noc([C@@H]3CCCN3C(=O)Cc3ccc(C)cc3)n2)cc1OC,–,inactive,–
O=C1NCc2ccccc2CC12CCN(Cc1cccc(F)c1)C2 (centres undefined),–,–,"inconclusive [inhibitor, partial curve, poor fit]"
C[C@@H]1C(=O)O[C@H]2[C@H]1CC[C@@]1(C)Cc3sc(NS(=O)(=O)c4ccc(F)cc4)nc3[C@@H](C)[C@H]21,–,–,"inconclusive [inhibitor, single point]"
CNC(=O)[C@@H]1CN(C(=O)c2ccc3c(c2)OCO3)C[C@H]1c1n[nH]c(C)n1,–,–,"inconclusive [inhibitor, single point]"
Cc1cccc(-c2ccccc2C(=O)N2CCCC(CO)(Cc3ccccc3F)C2)c1 (centres undefined),–,–,"inconclusive [inhibitor, single point]"
O=C(C1CCCN(S(=O)(=O)N2CCCC2)C1)N1CCC(Cc2nncn2-c2ccccc2)CC1 (centres undefined),–,–,"inconclusive [inhibitor, single point]"
CC(C)[C@H]1CN(CCS(C)(=O)=O)C[C@@H]1NC(=O)CCn1cncn1,–,–,"inconclusive [inhibitor, single point]"
Oc1cc(O)c2c(c1)O[C@H](c1ccc(O)c(O)c1)[C@@H](O)C2,–,–,"inconclusive [inhibitor, single point]"
O=C(NCCc1csc(-c2ccncc2)n1)C1CNCCO1 (centres undefined),–,–,"inconclusive [inhibitor, single point]"
CC(Cc1ccncc1)Nc1nccc(-c2cnn(-c3ccccc3F)c2)n1 (centres undefined),inactive: -6.62%,–,–
CCCCOCCOCCOCc1cc2c(cc1CCC)OCO2,–,–,"inconclusive [inhibitor, single point]"
O=C(c1cccc(OC(F)(F)F)c1)N1CCCC1c1nncn1Cc1ccncc1 (centres undefined),–,–,"inconclusive [inhibitor, partial curve]"
CN(C)CCNC(=O)C1CC(=O)N(c2n[nH]c3ccccc23)C1 (centres undefined),–,–,"inconclusive [inhibitor, partial curve]"
CCCCc1ncc(CN(C)CC2CCCN(CCc3ccc(F)cc3)C2)[nH]1 (centres undefined),–,–,"inconclusive [inhibitor, single point]"
O=C1CC(c2ccccc2)N(C(=O)CNC(=O)c2ccc3[nH]ccc3c2)CCCCCN1 (centres undefined),inactive: -5.51%,–,–
Cc1ccccc1Oc1c(CCC(=O)N2CCSCC2)c(C)nn1-c1ccc(F)cc1,–,inactive,–
COCC(=O)NC1CCC12CCN(C(=O)CC1CCCCC1)CC2 (centres undefined),–,–,"inconclusive [inhibitor, single point]"
Cc1cc(CN(C)C(=O)c2cc(COc3ccc(F)cc3F)on2)n[nH]1,–,–,"inconclusive [inhibitor, single point]"
C=CCOc1cccc(-c2nc(C(=O)Nc3ccccc3)cs2)c1,–,–,"inconclusive [inhibitor, single point]"
CN1C(=O)c2cccn2CC1CNC(=O)c1ccccc1 (centres undefined),–,inactive,–
O=C(Nc1ccc(Cl)cc1)N1CCn2c(nn(-c3ccc([N+](=O)[O-])cc3)c2=O)C1,–,inactive,–

Compound,"activity change, negative = inhibition",outcome,Potency
COc1ccc(-c2cc(N3CCCC(NC(=O)C4CCCCC4)C3)n[nH]2)cc1 (centres undefined),–,–,"inconclusive [inhibitor, partial curve, poor fit]"
CCCCCCCCn1cc(CN(CC)CC)c2cc(-c3cnc(N)nc3)ccc21,–,–,"inconclusive [inhibitor, single point]"
C=C(C(=O)O)C1CCC2(C)CCC(O)C(=C)C2C1 (centres undefined),–,–,"inconclusive [inhibitor, single point]"
COCCOc1ccc(C(=O)N[C@@H]2CN(C(=O)Nc3cccc(OC)c3)CCC[C@H]2O)cc1,–,–,"inconclusive [inhibitor, full curve, poor fit]"
CN1CCOc2c(C(=O)NCCc3ccccc3)cc(N3CCOCC3)cc21,–,–,"inconclusive [inhibitor, full curve, poor fit]"
CCc1ccc(C2CC(C(=O)NCc3ccco3)CN(C(=O)c3ccc(F)cc3)C2)cc1 (centres undefined),inactive: -2.09%,–,–
CN1CCN(c2cc(=O)c3ccnc(-c4ccccc4Oc4ccccc4)c3o2)CC1,–,–,"inconclusive [inhibitor, single point]"
Cc1cc(C)c(C#N)c(-c2ccc(C(C)N3CCOCC3)cc2)n1 (centres undefined),inactive: 2.17%,–,–
COc1ccc(CN2CCCC3(C2)NC(=O)c2ccccc2O3)cc1 (centres undefined),–,–,"inconclusive [inhibitor, single point]"
Cc1ccc(NC(=O)C2CC(=O)Nc3ncnn32)cc1 (centres undefined),inactive: -2.36%,–,–
COCCCNC(=O)c1ccc2c(c1)C(O)CCCCCN2C (centres undefined),–,–,"inconclusive [inhibitor, single point]"
CCN(CC1CCOCC1)C(=O)c1cc(COc2ccccc2F)[nH]n1,inactive: -2.99%,–,–
N#Cc1cccc(-c2ccnc(N[C@H]3CO[C@H]4[C@@H]3OC[C@H]4OC(=O)Nc3cccc4ccccc34)n2)c1,–,–,"inconclusive [inhibitor, partial curve, poor fit]"
CC(=O)Nc1cccc(-c2cn(C)c(=O)n3cc(COc4ccc(Cl)cc4)nc23)c1,–,–,"inconclusive [inhibitor, single point]"
CN(C)c1cc(N2C[C@@H](CN3CCOCC3)C[C@H](CO)C2)ncn1,–,–,"inconclusive [inhibitor, partial curve, poor fit]"
CCc1nc2c(c(-c3ccc(O)cc3)n1)CN(C(=O)c1ccc(OC)cc1)CC2,–,–,"inconclusive [inhibitor, single point]"
COCc1ccc2c(c1)c(OC(C)(C)C(=O)N1CC(O)C1)nn2CCC(C)C,–,–,"inconclusive [inhibitor, single point]"
CCN1CC(C(=O)N2CCCC(c3ccccc3)(c3ccccc3)C2)CC1=O (centres undefined),inactive: -3.34% [at 11.5 µM],–,–
CCc1ccc(CNC(=O)C2CCN(C(=O)c3ncn4c3COC(c3ccc(F)cc3)C4)CC2)cc1 (centres undefined),–,inactive,–
Cc1n[nH]c(C)c1CCC(=O)Nc1cccn2nc(C3CCC3)nc12,–,–,"inconclusive [inhibitor, partial curve]"
COc1ccc(-c2cc3onc(-c4ccncc4)c3c(=O)n2C)cc1,–,–,"inconclusive [inhibitor, full curve, poor fit]"
CN1Cc2cc(C(=O)N3CCC(C4CCNCC4)CC3)ccc2NC(CC(=O)O)C1=O (centres undefined),–,–,"inconclusive [inhibitor, single point]"

Compound,"activity change, negative = inhibition",outcome,Potency
O=C(C1CCOCC1)N1CC(CNc2ccccc2)C2(C1)CN(c1ccccc1)C2 (centres undefined),–,inactive [at 88.5 µM],–
COc1ccc(C(=O)N2CCC3(CC2)c2[nH]c4ccccc4c2CCN3C)c(OC)n1,inactive: 2.21%,–,–
CCCC[C@H](N)C(=O)N1CCC2(CC1)CC(=O)N(Cc1cc(F)cc(F)c1)C2,–,–,"inconclusive [inhibitor, single point]"
COc1cc(OC)cc(C(=O)NC2CCN(c3cc(-c4cccs4)[nH]n3)C2)c1 (centres undefined),–,–,"inconclusive [inhibitor, full curve]"
Cc1ccc(-n2nc3n(c2=O)CCN(C(=O)Nc2ccccc2)C3)cc1,–,–,"inconclusive [inhibitor, partial curve, poor fit]"
Cc1noc(C)c1-c1cc2c(c(-c3ccccc3Oc3ccccc3)c1)C(=O)N(C)C2,–,–,"inconclusive [inhibitor, single point]"
O=C(C1CCCN1[S+](=O)([O-])c1cccc(C(F)(F)F)c1)N1CCC(c2ccccc2)CC1 (centres undefined),inactive: -3.46%,–,–
O=C(CN1C(=O)COc2ccc(C(=O)COc3ccccc3F)cc21)Nc1ccc(F)cc1,–,–,"inconclusive [inhibitor, single point]"
CCc1nc(C)cc(-c2cc(OC)c(OC)c(OC)c2)n1,–,–,"inconclusive [inhibitor, full curve, poor fit]"
O=C1N(Cc2ccccn2)C[C@H]2CN(Cc3cccc(OC(F)(F)F)c3)CCN12,–,–,"inconclusive [inhibitor, single point]"
CC(=O)NC[C@@H]1C=C(C)[C@H](Cc2nc3ccccc3[nH]2)C[C@H]1C(C)C,–,inactive [at 88.5 µM],–
COc1cccc(CN2CCCCCCNC(=O)[C@@H]3CCC[C@@H]32)c1OC,inactive: -7.73%,–,–
COc1ccc(CNC(=O)[C@@H](C)C2CC[C@@]3(C)CC[C@H](NC(=O)C4CC4)[C@@H](C)[C@@H]3[C@H]2O)cc1 (some centres undefined),–,–,"inconclusive [inhibitor, full curve, poor fit]"
CN(C)C(=O)Nc1cccc(-c2ccc(N(C)C)cc2)c1,–,inactive,–
COc1cccc(N2CC(C(=O)N3CCC(C(=O)NCCc4ccc(Cl)cc4)C3)NC2=O)c1 (centres undefined),–,–,"inconclusive [inhibitor, partial curve, poor fit]"
Cc1cccc(C)c1-c1nc(C(=O)N2CCN(c3ncccn3)CC2)n2ccccc12,–,–,"inconclusive [inhibitor, single point]"
CC(=O)Nc1cccc(-c2nc(-c3c(C)noc3C)cc3c2cc(C)n3CCN(C)C)c1,–,–,"inconclusive [inhibitor, full curve, poor fit]"
O=C(Nc1ccc(-c2nnc3n2CCCC3)cc1)C1CCCC1,–,–,"inconclusive [inhibitor, full curve, poor fit]"
O=C(NCc1cccnc1)C1CCC(=O)N1C1CCNCC1 (centres undefined),–,–,"inconclusive [inhibitor, partial curve, poor fit]"
COC[C@@H]1CN(c2ncccn2)C[C@H]1C(=O)Nc1ccc(OC)nc1,inactive: 4.16%,–,–
